What was measured:
[1] = tested on: MKN-1 cells endogenously expressing BCAM; assay: In vitro cellular internalization by confocal laser scanning microscopy; type: cell-based, human
Method: In vitro cellular internalization property by receptor-mediated endocytosis of Ab1 was evaluated to MKN-1 cells endogenously expressing BCAM by immunocytochemical analysis using confocal laser scanning microscopy. MKN-1 (human gastric adenosquamous carcinoma cancer cell line, KCLB) cells were seeded at 5.0×10^4 cells to each well on the chamber slide (SPL, Korea) and incubated overnight at 37° C. and 5% CO2 condition. Next day, the chamber slides were washed with 1 mL of PBS and μL of Ab1 (40 μg/mL) or HG4K IgG4 (SinoBiological, USA) (40 μg/mL) diluted in PBS was added to indicated well. The Ab1 treated chamber slides were divided into two groups, one group was used as a negative control for cellular internalization, and the other group was used for induction of cellular internalization. For negative control group, the Ab1 treated cells in chamber slides were incubated for 1 hr at 4° C., and then unbound antibodies were removed and washed 3 times with 1 mL of PBS. The chamber slide was fixed with 500 μL of 4% PFA (paraformaldehyde; Sigma, USA) solution for 10 min at room temperature. […] After washing 3 times with PBS, Dako fluorescence mounting solution was drop-wisely added to the slides, and the slides were sealed with clear cover glass. […]

KURAMOCHI = assay: Cytotoxic activity, CellTiter-Glo assay (Example 3.2); type: cell-based, human; conditions: 72 hours
Method: (§1) In vitro cytotoxic activity of Ab1-Linker-MMAF and Ab3-Linker-MMAF was assessed in several human cancer cell lines (KURAMOCHI, OVCAR3, SK-BR-3, VCaP or RERF-GC-1B) expressing different levels of BCAM by CellTiter-Glo® assay (Promega). Cells were seeded into 96 well clear flat bottom plates (5,000 cells/well) in RPMI-1640 (for KURAMOCHI, OVCAR3, and SK-BR-3) or DMEM (for VCaP and RERF-GC-1B) supplemented with 10% FBS and 1% penicillin/streptomycin and kept at 37° C. and 5% CO2. After overnight incubation, cells were treated with different concentrations of Ab1-Linker-MMAF, Ab3-Linker-MMAF or negative controls for each test article (HG4K IgG4-Linker-MMAF for Ab1-Linker-MMAF and Ab3-Linker-MMAF, respectively). After 72 hours, CellTiter-Glo® reagent was added to each well and luminescence was measured using Envision 2105 (PerkinElmer, Waltham, MA). All experiments were performed in triplicate. The percentage of viable cells was determined using the following formula: (T−D0)/(V−D0)×100 [T=luminescence of drug treated cells, V=luminescence of PBS (vehicle) treated cells, D0=luminescence of untreated cells on day 0]. All data were analyzed using GraphPad Prism software (GraphPad Software, San Diego, CA).

OVCAR3 = assay: as above; type: cell-based, human; conditions: 72 hours
Method: as §1

RERF-GC-1B = assay: as above; type: cell-based, human; conditions: 72 hours
Method: as §1

SK-BR-3 [2] = assay: as above; type: cell-based, human; conditions: 72 hours; Table 4.2
Method: as §1

VCaP = assay: as above; type: cell-based, human; conditions: 72 hours
Method: as §1

[3] = tested on: BCAM positive A431 xenograft model; assay: In vivo anti-tumor activity in A431 xenograft model; parameters: species or system BALB/c nude mouse; conditions: for mean tumor growth rate (vehicle control = 100%): day 14
Method: In vivo anti-tumor activity of Ab1-Linker-AF was evaluated in BCAM positive A431 xenograft model. A431 cells (KCLB, Korea) were cultured in RPMI supplemented with 10% FBS and 1% penicillin/streptomycin at 37° C. and 5% CO2. To establish a tumor model, 5×10^6 A431 cells were subcutaneously injected into the right flank of a 6-week-old female BALB/c nude mouse (Orientbio, Korea). When tumors reached 75~150 mm^3, mice were randomly assigned to the following treatment groups (n=8/group): PBS (vehicle), HG4K IgG4-Linker-AF (20 mg/kg), Ab1 (20 mg/kg), and Ab1-Linker-AF (5, 10, and 20 mg/kg). Each control or test article was given intravenously once a week for two weeks. Tumor diameters were measured 2 to 3 times a week and the tumor volume was calculated with the following formula: [Tumor volume=Length×Width^2×0.5]. […] On day 14 after starting treatment, the mean tumor growth rate of the vehicle control group was set as 100% and compared with other control groups (20 mg/kg of HG4K IgG4-Linker-AF and 20 mg/kg of Ab1) and Ab1-Linker-AF (5, 10, and 20 mg/kg) treatment groups.

A431 = assay: Cytotoxic activity, CellTiter-Glo assay (Example 3.1); type: cell-based, human; conditions: 72 hours
Method: (§2) In vitro cytotoxic activity of Ab1-Linker-DM1, Ab1-Linker-AF and Ab2-Linker-AF was assessed in several human cancer cell lines (SK-BR-3, T47D, MCF-7, A431 or Huh7) expressing different levels of BCAM by CellTiter-Glo® assay (Promega). Cells were seeded into 96 well clear flat bottom plates (5,000 cells/well) in RPMI-1640 supplemented with 10% FBS and 1% penicillin/streptomycin and kept at 37° C. and 5% CO 2. After overnight incubation, cells were treated with different concentrations of Ab1-Linker-DM1, Ab1-Linker-AF or negative controls for each test article (HG4K IgG4-Linker-DM1 for Ab1-Linker-DM1 and HG4K IgG4-Linker-AF for Ab1-Linker-AF and Ab2-Linker-AF, respectively). After 72 hours, CellTiter-Glo® reagent was added to each well and luminescence was measured using Synergy H1 (BioTek, Winooski, VT). All experiments were performed in triplicate. The percentage of viable cells was determined using the following formula: (T−D0)/(V−D0)×100 [T=luminescence of drug treated cells, V=luminescence of PBS (vehicle) treated cells, D0=luminescence of untreated cells on day 0]. All data were analyzed using GraphPad Prism software (GraphPad Software, San Diego, CA). […] See FIGS. 1A (for Ab1-Linker-DM1) and 1B (for Ab1-Linker-AF). […] Next, the cytotoxicity of Ab2-Linker-AF was examined in SK-BR3 and A431 cells.

Huh7 = assay: as above; type: cell-based, human; conditions: 72 hours
Method: as §2

MCF-7 = assay: as above; type: cell-based, human; conditions: 72 hours
Method: as §2

SK-BR-3 [4] = assay: as above; type: cell-based, human; conditions: 72 hours
Method: as §2

T47D = assay: as above; type: cell-based, human; conditions: 72 hours
Method: as §2

[5] = 20 mg/kg i.v. once a week for two weeks
[6] = Table 4.1 Ab1-Linker-DM1 / Ab1-Linker-AF sections
[7] = Table 4.1 Ab2-Linker-AF section

B1: Ab1: anti-BCAM antibody, human IgG4 S228P isotype; heavy chain SEQ ID NO: 9, light chain SEQ ID NO: 11 (antibody)
heavy: EVQLVQSGGGLVKPGGSLRLSCAASGFTFSDYYMSWIRQAPGKGLEWVSYTSSSGSTIYYADSVKGRFTISRDNAKNSLYLQMNSLRAEDTAVYYCARDITAFDIWGQGTMVTVSSASTKGPSVFPLAPCSRSTSESTAALGCLVKDYFPEPVTVSWNSGALTSGVHTFPAVLQSSGLYSLSSVVTVPSSSLGTKTYTCNVDHKPSNTKVDKRV[human IgG4 Fc with S228P (EU numbers) left out here]
light: LPVLTQPPSASGSPGQSVTISCTGTSSDVGGYNYVSWYQQHPGKAPKLMIYEVNKRPSGVPDRFSGSKSGNTASLTVSGLQAEDEADYYCCSYAGSNNYVFGTGTKVTVLGQPKAAPSVTLFPPSSEELQANKATLVCLISDFYPGAVTVAWKADSSPVKAGVETTTPSKQSNNKYAASSYLSLTPEQWKSHRSYSCQVTHEGSTVEKTVAPTECS
Localisation of antibody in MKN-1 cells ([1]; internalization induction group: 40 μg/mL, 1 hr at 4° C. then 1 hr at 37° C.): detected in the intracellular region of MKN-1
Localisation of antibody in MKN-1 cells ([1]; negative control group: 40 μg/mL, 1 hr at 4° C. without cellular internalization induction): detected on the cell surface of MKN-1
GI50 (KURAMOCHI): > 1000 nM
GI50 (OVCAR3): > 1000 nM
GI50 (RERF-GC-1B): > 1000 nM
GI50 (SK-BR-3 [2]): > 1000 nM
GI50 (VCaP): > 1000 nM
mean tumor growth rate (vehicle control = 100%) [3, 5]: 83.4%

B2: Ab1-Linker-DM1 (conjugate)
heavy: B1 heavy
light: B1 light
modifications: non-natural residues
GI50 (A431; [6]): 42 nM
GI50 (Huh7): 22 nM
GI50 (MCF-7): 34 nM
GI50 (SK-BR-3 [4]; [6]): 2.8 nM
GI50 (T47D): 16 nM

B3: Ab1-Linker-AF (conjugate)
heavy: B1 heavy
light: B1 light
modifications: non-natural residues
GI50 (A431; [6]): 9.1 nM
GI50 (Huh7): 193 nM
GI50 (MCF-7): 59 nM
GI50 (SK-BR-3 [4]; [6]): 0.9 nM
GI50 (T47D): 31 nM
mean tumor growth rate (vehicle control = 100%) ([3]; 5 mg/kg i.v. once a week for two weeks): 34.2%
mean tumor growth rate (vehicle control = 100%) ([3]; 10 mg/kg i.v. once a week for two weeks): 11.4%
mean tumor growth rate (vehicle control = 100%) [3, 5]: 7.3%
A431 tumor growth ([3]; 5, 10 and 20 mg/kg intravenously once a week for two weeks): significantly inhibited the A431 tumor growth in a dose dependent manner

B4: Ab1-Linker-MMAF (conjugate)
heavy: B1 heavy
light: B1 light
modifications: non-natural residues
GI50 (KURAMOCHI): 5.3 nM
GI50 (OVCAR3): 5.1 nM
GI50 (RERF-GC-1B): 1.5 nM
GI50 (SK-BR-3 [2]): 0.31 nM
GI50 (VCaP): 14 nM

B5: Ab3-Linker-MMAF (conjugate)
heavy: EVQLVQSGGGLVKPGGSLRLSCAASGFTFSDYYMSWIRQAPGKGLEWVSYTSSSGSTIYYADSVKGRFTISRDNAKNSLYLQMNSLRAEDTAVYYCARDITAFDIWGQGTMVTVSSASTKGPSVFPLAPSSKSTSGGTAALGCLVNDYFPEPVTVSWNSGALTSGVHTFPAVLQSSGLYSLSSVVTVPSSSLGTQTYICNVNHKPSNTKVDKKV[human IgG1 Fc with changes left out here]
light: B1 light
modifications: non-natural residues
GI50 (KURAMOCHI): 4.4 nM
GI50 (OVCAR3): 3.1 nM
GI50 (RERF-GC-1B): 1.4 nM
GI50 (SK-BR-3 [2]): 0.24 nM
GI50 (VCaP): 24 nM

B6: Ab2: anti-BCAM antibody, human IgG1 isotype; heavy chain SEQ ID NO: 10, light chain SEQ ID NO: 11 (antibody)
heavy: EVQLVQSGGGLVKPGGSLRLSCAASGFTFSDYYMSWIRQAPGKGLEWVSYTSSSGSTIYYADSVKGRFTISRDNAKNSLYLQMNSLRAEDTAVYYCARDITAFDIWGQGTMVTVSSASTKGPSVFPLAPSSKSTSGGTAALGCLVNDYFPEPVTVSWNSGALTSGVHTFPAVLQSSGLYSLSSVVTVPSSSLGTQTYICNVNHKPSNTKVDKKV[human IgG1 Fc left out here]
light: B1 light
GI50 (A431; [7]): > 1000 nM
GI50 (SK-BR-3 [4]; [7]): > 1000 nM

B7: Ab3: anti-BCAM antibody, human IgG1 LALA isotype; heavy chain SEQ ID NO: 12, light chain SEQ ID NO: 11 (antibody)
heavy: EVQLVQSGGGLVKPGGSLRLSCAASGFTFSDYYMSWIRQAPGKGLEWVSYTSSSGSTIYYADSVKGRFTISRDNAKNSLYLQMNSLRAEDTAVYYCARDITAFDIWGQGTMVTVSSASTKGPSVFPLAPSSKSTSGGTAALGCLVNDYFPEPVTVSWNSGALTSGVHTFPAVLQSSGLYSLSSVVTVPSSSLGTQTYICNVNHKPSNTKVDKKV[human IgG1 Fc with changes left out here]
light: B1 light
GI50 (KURAMOCHI): > 1000 nM
GI50 (OVCAR3): > 1000 nM
GI50 (RERF-GC-1B): > 1000 nM
GI50 (SK-BR-3 [2]): > 1000 nM
GI50 (VCaP): > 1000 nM

Source: patent US20260191982A1, “ANTI-BASAL CELL ADHESION MOLECULE ANTIBODY-DRUG CONJUGATE” (Genome & Company, Inc., priority 2022, published 2026)
